Experimental data from the supplement of paper PMC3334620.
Whole data set: some 33,000 sequences, median “E-score (-0.5 to 0.5)” near -0.013, cut for the highest 2% near 0.3. The list shows a part of the results.

What follows are sequences tested against T1, Msn1 (UniProt P22148) (assay: PBM E-score (8-mer binding enrichment) (E-score (-0.5 to 0.5)); higher = stronger / more preferred TF binding; most listed sequences are background and not binding sites). Settings: protein concentration: 200 nM; construct: GST-full length.
T1 sequence: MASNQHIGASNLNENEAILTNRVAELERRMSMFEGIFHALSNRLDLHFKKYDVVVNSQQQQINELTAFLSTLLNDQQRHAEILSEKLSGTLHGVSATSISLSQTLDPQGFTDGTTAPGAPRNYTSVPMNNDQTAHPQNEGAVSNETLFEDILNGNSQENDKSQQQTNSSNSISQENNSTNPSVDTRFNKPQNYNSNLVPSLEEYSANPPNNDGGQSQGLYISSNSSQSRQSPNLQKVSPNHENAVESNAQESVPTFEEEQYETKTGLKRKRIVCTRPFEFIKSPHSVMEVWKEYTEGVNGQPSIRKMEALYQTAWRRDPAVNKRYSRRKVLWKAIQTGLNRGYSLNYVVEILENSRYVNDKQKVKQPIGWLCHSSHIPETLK
Outline: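 Universal all-10-mer Agilent arrays, fresh or stripped once, were converted to double-stranded form by primer extension. GST-tagged yeast transcription factors from PURExpress in vitro transcription/translation, full-length or DNA-binding domain only, were applied at about 100-200 nM and detected with fluorescent anti-GST. After masliner normalisation, the Universal PBM Analysis Suite scored each ungapped eight-base word together with its reverse complement by E-score.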

Row | Sequence | PBM E-score
1 | CATTTGCG | 0.13
2 | AATACTCT | 0.0619
3 | ATCCCTCA | -0.27
4 | CTAGCCAA | 0.00535
5 | AGTGCGAA | -0.16
6 | ACGTCCAG | 0.0531
7 | AGAAGACT | -0.225
8 | ATAATTTA | 0.178
9 | ACCGGCCT | -0.163
10 | CGCCGGAA | 0.0375
11 | AACCTTGA | -0.00797
12 | GACACCAA | 0.132
13 | CTGTCCCC | 0.00412
14 | ATAATCTA | 0.019
15 | GGCGTCCC | -0.22
16 | CGCCCTAA | -0.171
17 | CAGCCAGC | -0.217
18 | ATAAGACC | -0.0547
19 | GTCTTAAA | 0.101
20 | ACCGCGCC | -0.168
21 | CACGAAAG | 0.19
22 | AGTGAACC | 0.0211
23 | CATACGTC | 0.11
24 | CTTTAATC | 0.0429
25 | CAAGGGAA | -0.0407

Row | Sequence | PBM E-score
26 | GACTGTCA | -0.0616
27 | TATAGCAA | 0.055
28 | CAGAAGTC | 0.0297
29 | AAATCTAT | 0.147
30 | GCCCATAC | -0.0243
31 | TGGCGGAA | -0.131
32 | TCCCCCAA | -0.251
33 | CTGTGATC | -0.0616
34 | ACCGGAAA | 0.16
35 | GGATTTAA | 0.112
36 | CAGAGCAA | -0.0958
37 | CCGGAACC | -0.105
38 | CTGGTGCA | -0.254
39 | CATGACTC | -0.155
40 | ATCCCCGC | -0.138
41 | AAGCCAGG | -0.181
42 | GATTATAC | 0.0634
43 | ATAGGTGA | 3e-05
44 | CTACTCGC | -0.174
45 | CCGACCAG | 0.0232
46 | TGCTGCAA | 0.174
47 | CAGATTAA | 0.161
48 | AACCGTAA | 0.0256
49 | GTCTGAAA | 0.241
50 | AGACCCAG | -0.174

Row | Sequence | PBM E-score
51 | GTCTACAA | -0.00574
52 | ACCCGCCA | -0.0344
53 | AGCTGCCG | -0.118
54 | ACCCCAGA | -0.157
55 | GAATAATC | 0.0305
56 | CTCGGACC | 0.165
57 | AAGGACGG | -0.145
58 | ACAAGCAA | 0.193
59 | CGATGTAC | 0.169
60 | CCGTTCCG | 0.0111
61 | CTAAGCGC | -0.0446
62 | CAGCCTGC | -0.0942
63 | CAAAGCGA | 0.0917
64 | CCTTGCTC | -0.197
65 | CATGATAG | 0.157
66 | CGAACTTC | 0.15
67 | AATTCGTG | 0.0694
68 | ATGCACAC | 0.0104
69 | ATGGTACG | 0.131
70 | GGTCTCAC | 0.0709
71 | AGATTAAT | 0.0857
72 | CCCACGGA | -0.0342
73 | AAGGGTGT | -0.114
74 | CTTTGTTC | 0.0603
75 | AATACGGA | 0.0804

Row | Sequence | PBM E-score
76 | GGCGCCTA | -0.0165
77 | TAGAGCTA | -0.118
78 | AACGAGAG | 0.2
79 | CTAAAGGC | -0.116
80 | GGGCATAC | -0.178
81 | CGTTTTTA | 0.248
82 | ATTCAGAC | 0.257
83 | CCTAGTGA | -0.172
84 | CTCTGTCA | -0.0435
85 | ACTGGTAT | -0.0668
86 | ACTCGACA | 0.164
87 | CTTTATAA | 0.177
88 | CTACGATC | 0.0145
89 | ACAATTGC | 0.191
90 | CGGCGTAG | -0.209
91 | ACATTTAC | 0.333
92 | ACCGGGTC | -0.0182
93 | CGCTACGC | -0.267
94 | ACGCTCAT | -0.0301
95 | ATTTCGGG | 0.0409
96 | AAAGGGAC | 0.155
97 | GGTCTGCA | -0.00247
98 | GTTGAACA | -0.0283
99 | GGTCCCCA | -0.264
100 | TAAGAAAA | 0.00824

Row | Sequence | PBM E-score
101 | CGTTCCAA | -0.0264
102 | CCACAAAC | 0.223
103 | GCCCGTAC | -0.155
104 | AGCCCTCA | -0.299
105 | CTCAAAAA | 0.0872
106 | AAACTAGG | 0.0937
107 | TTCGGCAA | 0.0801
108 | CAGATGCG | -0.0563
109 | GTTTCATA | -0.107
110 | CGCAACGA | -0.0698
111 | ATTTCAGA | 0.191
112 | AACTTCGG | 0.139
113 | TCGGCGCA | 0.0772
114 | GCAGCTGC | -0.0583
115 | CTAGTGTA | 0.0569
116 | AAAAACCC | -0.105
117 | GATGCTCC | -0.183
118 | CCTAGAGA | -0.119
119 | CCTACGAG | -0.121
120 | AGATGCTG | -0.0583
121 | GAAAGGTA | 0.101
122 | GCGTGCCC | -0.248
123 | CTATCAAA | 0.0766
124 | TCAAGCCA | -0.0791
125 | CTCCGGGC | -0.104

Row | Sequence | PBM E-score
126 | CCCCGAGC | -0.133
127 | TCTTGTAA | 0.134
128 | CACCTGGA | -0.0458
129 | CTCGGTTA | -0.0881
130 | ACGGAAGG | -0.0988
131 | CCGATTAG | 0.0933
132 | AACATAAC | 0.0281
133 | CCATTTAG | -0.0921
134 | ATCCTGGG | -0.188
135 | CCACCCTA | 9e-05
136 | GGGCGCCA | -0.16
137 | GACTCGGA | 0.0141
138 | CCATTTCG | -0.147
139 | CTGTCCAA | 0.287
140 | GGTCTGAC | 0.0129
141 | CGAAAGTA | 0.117
142 | CTTACTTC | 0.0413
143 | AGCTGTAA | -0.0638
144 | CCGGTGCA | -0.198
145 | TATGGTCA | 0.118
146 | CCGGCAGG | -0.176
147 | CTCATATC | -0.196
148 | CCTTTGAG | -0.055
149 | ATTCACGC | -0.149
150 | ATGATGCC | -0.0448

Row | Sequence | PBM E-score
151 | AACCGGGC | -0.00703
152 | GAAGCCCA | -0.265
153 | GATGTACC | 0.0889
154 | GACTACGA | -0.117
155 | AGTTATGG | 0.169
156 | CCCTTCAG | -0.0875
157 | CACCGATA | 0.0165
158 | ATCTCAGA | 0.0316
159 | CACCTAAG | -0.0954
160 | TATAAGGA | 0.17
161 | TAAGTAGA | 0.0488
162 | GATAGACC | -0.0609
163 | CACCAGGC | -0.207
164 | ATAAAAAC | 0.183
165 | CAGTTTGC | 0.0174
166 | CATAAAGG | 0.0405
167 | CCTCCTAA | -0.0921
168 | CAGTCTCC | -0.122
169 | ATTGAGCC | 0.0496
170 | AACGCCTT | -0.0776
171 | CAGCTCAA | -0.0995
172 | ATTTGGCC | 0.0647
